Data reported in the BET-seq Pho4 binding data (Le et al. 2018).
This is one part of the list. The energies were worked out here from pooled read counts, against the library average; single values are noisy.

molecular target: T1, Pho4 (S. cerevisiae) (UniProt P07270); test: relative binding free energy (BET-seq); higher = weaker binding; conditions: reference: library average
T1 sequence: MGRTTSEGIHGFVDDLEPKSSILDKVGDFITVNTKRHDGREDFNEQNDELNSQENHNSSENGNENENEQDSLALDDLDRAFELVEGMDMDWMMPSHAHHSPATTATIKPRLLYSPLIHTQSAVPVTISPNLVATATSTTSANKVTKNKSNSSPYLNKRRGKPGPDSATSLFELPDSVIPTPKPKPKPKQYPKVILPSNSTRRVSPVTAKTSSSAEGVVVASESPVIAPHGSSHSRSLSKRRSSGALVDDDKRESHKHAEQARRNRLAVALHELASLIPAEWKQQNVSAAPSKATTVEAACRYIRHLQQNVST

Row | Sequence | relative binding free energy [kcal/mol]
1 | GTAAACACGTGGGAAG | 0.09
2 | TATGGCACGTGCTTGG | -0.02
3 | TGTGTCACGTGCTTTA | 0.04
4 | TACGTCACGTGTAGGA | 0.02
5 | CGGTTCACGTGTAAGG | 0.3
6 | AGAGGCACGTGCAGGG | -0.09
7 | GTAGGCACGTGATTGA | 0.11
8 | GCGGGCACGTGGAGAT | 0.03
9 | TGTAACACGTGGTAAT | 0.02
10 | TACTGCACGTGTTATG | -0.04
11 | TATGGCACGTGGAATA | 0.08
12 | ATTCTCACGTGTTGTG | 0.25
13 | AAGAACACGTGATTGT | 0.28
14 | CGGTTCACGTGTGCGT | 0.24
15 | GTTTACACGTGGTACT | 0.05
16 | CGTGACACGTGCGGTG | -0.15
17 | TTCAACACGTGGGGAG | -0.17
18 | GTTGGCACGTGTGTGC | -0.06
19 | CGATTCACGTGTCTGT | 0.28
20 | GCTTTCACGTGGGGCA | 0.11
21 | CAGGACACGTGGTTGT | -0.03
22 | TTTCTCACGTGTTAGA | 0.23
23 | TGGTCCACGTGGAGGC | 0

Row | Sequence | relative binding free energy [kcal/mol]
24 | GAGCTCACGTGTTAGT | 0.34
25 | GGGGGCACGTGTCGCG | -0.2
26 | TCTCGCACGTGTTGTT | -0.07
27 | TTGATCACGTGCGAGA | 0.16
28 | GAAGACACGTGGGAGG | -0.11
29 | CTGGTCACGTGTTTGA | 0.08
30 | GTGGACACGTGTTGAT | 0.17
31 | AAAGGCACGTGGTAAG | -0.16
32 | TCTTTCACGTGTGGGA | 0.27
33 | ATGTTCACGTGCGGTA | 0.24
34 | GCCGTCACGTGGAGGG | 0.09
35 | GATAGCACGTGTATTA | 0.06
36 | TTTTTCACGTGTATCC | 0.38
37 | GTAGCCACGTGTGGTT | 0.14
38 | TAAGGCACGTGGTTTC | -0.1
39 | AGGCGCACGTGTGGTA | -0.03
40 | TACGTCACGTGGCAGG | 0.15
41 | ATGGCCACGTGAATGG | 0.08
42 | GGGTGCACGTGCGGGA | -0.11
43 | TAATGCACGTGTAGCA | 0.14
44 | AGCTGCACGTGGGGGT | -0.18
45 | AGGTTCACGTGATGGC | 0.33
46 | ATACGCACGTGATTGT | 0.01

Row | Sequence | relative binding free energy [kcal/mol]
47 | TTTCGCACGTGGAATG | 0.01
48 | GAGGTCACGTGGGCTG | 0.09
49 | ATGGTCACGTGATGCG | 0.16
50 | CATCGCACGTGGGTTG | -0.17
51 | TCTGTCACGTGAACGT | 0.32
52 | TAGTTCACGTGTTGAT | 0.28
53 | GTAGGCACGTGGGACG | -0.18
54 | GTGTACACGTGAGGTC | 0.23
55 | AGTGACACGTGGCGTG | -0.07
56 | AATTGCACGTGGGTAT | -0.15
57 | TGGATCACGTGGCGAG | 0.03
58 | ACGGTCACGTGAGTGG | 0.09
59 | TTTTTCACGTGATGGT | 0.43
60 | GGGGTCACGTGTCAAT | 0.15
61 | AGGGGCACGTGGGCTT | -0.29
62 | GGGTGCACGTGCTAAT | 0
63 | TCGTGCACGTGGTTTT | 0.04
64 | TTTATCACGTGGTGGG | 0.15
65 | ATATCCACGTGGGTTT | -0.04
66 | AAAGTCACGTGTTTAA | 0.04
67 | TTAATCACGTGTGTCA | 0.15
68 | TTACGCACGTGTGAAG | 0.11
69 | AGGGGCACGTGCTGGG | -0.28

Row | Sequence | relative binding free energy [kcal/mol]
70 | AAAGGCACGTGTCTGG | -0.09
71 | CGGGGCACGTGTGTGC | -0.27
72 | TGCTTCACGTGTTTGT | 0.2
73 | AAATACACGTGTGGAG | 0.15
74 | GGGTACACGTGCTATT | 0.16
75 | AATTGCACGTGCTGGG | -0.08
76 | AGGTACACGTGCTTGT | 0.06
77 | GGTCCCACGTGAGTGG | 0.11
78 | AGGGTCACGTGGTTGT | 0.12
79 | AGGTTCACGTGTTATC | 0.27
80 | TGTATCACGTGGGAGG | 0.05
81 | TCTGCCACGTGTTTTT | 0.12
82 | TGGATCACGTGGTGGT | 0.13
83 | GAGGGCACGTGGTTCG | -0.15
84 | TAGTTCACGTGGGGAT | 0.24
85 | ATAGTCACGTGACTGG | 0.23
86 | TCAGTCACGTGCGGTG | 0.09
87 | GGTTTCACGTGTCTTG | 0.31
88 | AATATCACGTGTGCGT | 0.21
89 | GGGGTCACGTGAAGAA | 0.35
90 | CTTGTCACGTGTAGAT | 0.24
91 | TAGGACACGTGGTAAG | -0.03
92 | TGTTGCACGTGCAAGT | 0.05

Row | Sequence | relative binding free energy [kcal/mol]
93 | ATTGGCACGTGATGGT | -0.08
94 | TATTGCACGTGTAGGG | 0.08
95 | AGGGACACGTGGTTGG | -0.01
96 | ATTGCCACGTGATTGA | 0.21
97 | GGAGGCACGTGCATGT | -0.22
98 | TGGCGCACGTGGTGTA | -0.24
99 | AGGTCCACGTGTTGTT | 0.03
100 | CCGGGCACGTGGCGTA | -0.14
101 | TATAGCACGTGTCGAG | -0.02
102 | CGAGGCACGTGGGAGA | -0.16
103 | ACGTACACGTGGAGTG | 0
104 | GGAAGCACGTGTTTGA | -0.13
105 | TAGGACACGTGTAGTG | 0.03
106 | TGTATCACGTGGCGGA | 0.1
107 | GGGCGCACGTGCGTTG | -0.19
108 | TTGAACACGTGAGATT | 0.16
109 | TATTCCACGTGTCGGT | 0.08
110 | GTGTGCACGTGAGAAT | 0.3
111 | GTGTACACGTGTGCCG | 0.06
112 | GTAGGCACGTGGATAG | -0.17
113 | AATGTCACGTGAAGGT | 0.26
114 | GTGGGCACGTGAGCCG | -0.01
115 | ATGTTCACGTGAGTCT | 0.43
